The labels stand for the following.
B1: CPEB3 Ribozyme (parent)
chain: UAACAGGGGGCCACAGCAGAAGCGUUCACGUCGCAGCCCCUGUCAGAUUCUGGUGAAUCUGCGAAUUCUGCUGUAUAUCUC

The source gives no read counts; variants with many changes may rest on few reads.

Variants of B1 are the subject of the series. As to the kind of experiment: self-cleavage, relative activity (ratio to wild type); higher = more cleavage; in vitro, sequencing. The essentials:
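Libraries of CPEB3 self-cleaving ribozyme mutants came from rounds of error-prone PCR and carried barcodes, which DNA sequencing matched to variants. In vitro transcription used T7 RNA polymerase at 37°C for 5 hours, with a further 15 min in DNase I before EDTA stopped the reaction; the ribozymes cleaved during both steps. The RNA was reverse transcribed with template switching and sequenced on Illumina. Relative activity is the cleaved/total read fraction of a variant divided by that of the unmutated ribozyme, averaged over three batches with at least 5 reads.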
Consider UAACAGGGGGCCACAGCAGAGGCGUUCACGUCGUAGCCCCUGUCAGAUUCUGGUGAAUCUGCGAGUUCUGCUGUAUAUCUC, for which the self-cleavage stood at 0.18.

For the variant UAACAGGGGGCCACAGCAGAGGCAUUCACGUCGCAGCCCCUGUCAGAUUCUGGUGAAUCUGCGAAUUCAGCUGUAUAUCUC, the self-cleavage was determined as 0.14.

On to UAACAGGGGGCCACAGCAGAGACGUUCACGUCGCAGCCCCUGUCAAAUUCUGGUGAAUCUGCGAAUUCUGCUGUGUAUCUC, for which the self-cleavage was 0.06.

UAACAGGGGGCCACAGCAGAGACGUUCGCGUUGCAGCCCCUGUCAGAUUCUGGUGAAUCUGCGUAUUCUGCUGUACAUCUC: the self-cleavage stood at 0.1.

On to UAACAGGGGGCCACAGCAGAGGCGUUCACGUCGCAGUCCCUGUCAGAUUCUGGCUAAUCUGCGAAUUCUGCUGCAUAUCUC, for which the self-cleavage was 0.17.

For UAACAGGGGGCCACAGCAGAGACGUUCACGUCGCAGCCCCUGUCAGAUUCUGGUGAAUCUGCGAAUUCUGCUGUACAUCUC, the self-cleavage worked out at 0.1.

In the case of UAACAGGGGGCCACAGCAGAGGCGUUCAUGUCGCAGCCCCUGUCAGAUUCUGGUGAAUCUGCGAAUCCUGCUGUAUACCUC, the self-cleavage amounted to 0.15.

On to UAACAGGGGGCCACAGCAGAGGCGUUCACGUCGCAGACCCUGUCAGACCCUGGUGAAUCUGCGAAUUCUGCUGCAUAUCUC, for which the self-cleavage is 0.

Take UAACAGGGGGCCACAGCAGAGGCGUUCACGUCGUAGCCCCUGUCAGAUUCUGGCGAAACUGCGAACUCUGCUGUAUAUCUC: the self-cleavage came to 0.06.

In the case of UAACAGGGGGCCACAGCAGAGGCAUUCACGUCGCAGCCCCUGUCAGAUUCUGGUGAAUCUGCGAACUCUGCUGUAUAUCUC, the self-cleavage is 0.09.

For UAACAGGGGGCCACAGCAGAGGCGUUCACGUCGCAGCCCCUGUCAGAUUCUGGUGAAUCUGUGAAUUCAGCUGUAUAUCUC, the self-cleavage was determined as 0.13.

Consider UAACAGGGGGCCACAGCAGAGGCGUUCACGUCGUAGCCCCUGUCAGGUUCUGGUGAAUCCGCGAAUUCUGCUGUAUAUCUC, for which the self-cleavage was 0.14.

Take UAACAGGGGGCCACAGCAGAGGCGUUCACGUCGCAGCCCCUGUGAGAUUCUGGUGAACCUGCGAAUUCUGCUGUAUAUCUC: the self-cleavage came to 0.22.

On to UAACAGGGGGCCACAGCAGAGGCGUUCACGUCGCAGUCCCUGUCAGAUUCUGGUGAAUCUGCGGAUUCUGCUGUAUAUCUC, for which the self-cleavage came out at 0.16.

For the variant UAACAGGGGGCCACAGCAGAGGCGUUCACGUGGCAGCCCCUGUCAGAUCCUGGUGAAUCUGCGAAUUCUGCUGUAUAUCUC, the self-cleavage was determined as 0.15.

UAACAGGGGGCCACAGCAGAGGCGUUCACGUCGCAGCCCCUGUUAGAUUCUGGUGAAUCUGCGAAUUCUGCUGUAUAUCCC: the self-cleavage worked out at 0.19.

For UAACAGGGGGCCACAGCAGAGGCAUUCACGUCGCUACCCCUGUCUGAUUCUGGUGAGUCUGCGAAUUCUGCUGUAUAUCUC, the self-cleavage stood at 0.15.

As for UAACAGGGGGCCACAGCAGAGGCGUUCACGUAGCAGCCCCUGUCAGAUUCUGGUGAAUCUGCGAAUUCUGCUGUAUGUCUC, the self-cleavage is 0.19.

Turning to UAACAGGGGGCCACAGCAGAGGCGUUCACGUCGCAGCCUCCGUCAGAUUCUGGGGAAUCUGCGAAUUCUGCUGUAUGUCUC, the self-cleavage stood at 0.24.

For UAACAGGGGGCCACAGCAGAGGCGUUCACGUCGCAGCCUCUGUCAGAUUCUAGUGAAUCUGCGAAUUCUGCAGUAUAUCUC, the self-cleavage worked out at 0.11.

As for UAACAGGGGGCCACAGCAGAGGCGUUCACGUCGCAGCCCCUGUCAGAUUUUGGCGAAUCUGCGAGUUCUGCUGUAUAUCUC, the self-cleavage was 0.1.

Consider UAACAGGGGGCCACAGCAGAGGCGUUCACGUCGCAGCUCCUGUCAGAUUCUGGUGAAUCGGCGAAUUCUGCUGUAUAUCUC, for which the self-cleavage stood at 0.11.

For UAACAGGGGGCCACAGCAGAGGCGUUCACGUCGCAGCCCCUGUCAGAUUAUGGUGAAUCUGCGAAUUCUGCCGUAUAUCAC, the self-cleavage turned out to be 0.44.

For the variant UAACAGGGGGCCACAGCAGAGGCAUUCACGACGCAGCCCCUGCCAGAAUCUGGUGAACCUGCGAAUUCUGCUGUAUAUCUC, the self-cleavage was found to be 0.2.

As for UAACAGGGGGCCACAGCAGAGGCGUUCACGUCGCAGCUCCUGUCAGAUUCUGGCGGAUCUGCGAAUUCUGCUGUAUAUCUC, the self-cleavage was found to be 0.12.

Regarding UAACAGGGGGCCACAGCAGAGGCGUUCACGUCGUAGCCCCUGUCAGAUUCUGGUGAAUCUGCGAAUUCUGCAGUAUAUCUC, the self-cleavage is 0.07.

Regarding UAACAGGGGGCCACAGCAGAGGCAUUCACGUCGCAGCCCUUGUCAGAUUCUGGUGGAUCUGCGAAUUCUGCUGUAUAUCUC, the self-cleavage was determined as 0.39.

As to UAACAGGGGGCCACAGCAGAGGCGUUCACGUCGCAGCCCUUGUCGCAUUCUGGUGAAUCUGCGAAUUCUGCCGUAUAUCUC, the self-cleavage was 0.3.

On to UAACAGGGGGCCACAGCAGAGGCGUUCACGUCGCAGCUCCUGUCGGAUUCUGGUGAAUCUACGAACUCUGCUGUAUAUCUC, for which the self-cleavage came out at 0.14.

Consider UAACAGGGGGCCACAGCAGAGGCGUUCACGUUGCAGCCCCCGUCAGAUUCUGGUGAAUCUGCGAAUUCCGCUGUAUAUCUC, for which the self-cleavage was 0.07.

On to UAACAGGGGGCCACAGCAGAGGCGUUCACGUCGCAGCCGCUGUCAGAUUCUGGUGAAUCUGCGAAUUCCGCCGUAUAUCUC, for which the self-cleavage turned out to be 0.17.

Regarding UAACAGGGGGCCACAGCAGAGGCGUUCACGUCGCAGCCCUUGUCAAAUUCUGGUGAAUCUGCGAAUUCUGCUGUAUAUCUC, the self-cleavage was determined as 0.21.

Take UAACAGGGGGCCACAGCAGAGGCGUUCACGUCGUAGCCCCUGUCAGACUCUGGUGAAUCUGCGAAUUCUGCUGUAUAUCUC: the self-cleavage was 0.19.

As for UAACAGGGGGCCACAGCAGAGGCAUCCACGUCGCAGCCCCUGUCAGAUUCUGGUGAAUCUGCGAAUUCUGCUGAAUAUCUC, the self-cleavage was 0.29.

Values taken from the RNAGym collection of RNA variant scans (doi:10.1093/nar/gkz1192).
